Test results from the supplement of paper PMC11417369.
± gives the standard deviation of the averaged measurements. The list shows a part of the results.

What follows are sequences tested on PfAP2-LT AP2 domain (GST-tagged) (assay: gcPBM binding intensity (ln(normalized median fluorescence intensity)); higher = stronger DNA binding).
Procedure, shortened: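 Each value is the highest Masliner-normalised natural-log median intensity across replicate spots of either orientation of a probe. The probes were primer-extended double-stranded 36-bp intergenic genomic sequences on an Agilent 4 × 180k array, alongside negative controls, exposed for 1 h to GST-tagged P. falciparum DNA-binding domains expressed in E. coli. Bound protein was picked up with Alexa488 anti-GST antibody and scanned at 488 nm.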

Sequence | gcPBM binding intensity (ln)
TTTTATCATCACATTTGTCAAAAAAAAAAAAAAAAA [CACACA_negctrl_site1296] | 8.11 ± 0.38
ATATCAAACTAGAATGTGCGCATGCATTCAAGTTTT | 8.88 ± 0.28
GATTTTATAATTTCTACACACATATAAGAATATTCA [CACACA_site2802] | 8.86 ± 0.39
TTATGTTCATTATATGCACACATATATATAAATGTA [CACACA_site8947] | 8.86 ± 0.33
AAAAAAAATTTCTCAAGTACACAATTTTTTTTTGTT [XGTACX_site5874] | 8.62 ± 0.45
TTTTTTTAAATATATAAGATAAATTTATAAATAAAT [XGTACX_negctrl_site282] | 7.93 ± 0.43
TTCAATTTTTTAAAGCGTACATATAAAAGTTATATG [XGTACX_site731] | 8.49 ± 0.35
AATCATTTGTTATAAGTCTAAAATTATTAGAATATT [XGTACX_negctrl_site151] | 8.47 ± 0.52
ATTATTACATATAATGCATGTGCATATATTTTTATA [TGCATGCA_site701] | 8.8 ± 0.42
AAATTTGGATGACTCAATAAATTATAATATATATAT [CACACA_negctrl_site298] | 8.55 ± 0.49
ATATTCTTTATATGCATACACACCTAATATAGGGAC [CACACA_site1533] | 8.91 ± 0.38
TATAATAAATCGAACTGTACATATATATATATATAT [XGTACX_site7097] | 9.63 ± 0.51
TATACGCAGAAACACACACACAAAAAAAAAAAAAAA [CACACA_site427] | 9.55 ± 0.53
ATTCGGATCTATAAGTGTACACAATCTAGCGAAAAG [XGTACX_site3088] | 8.77 ± 0.52
CATATATAAATATATACACACATATATATATATATA [CACACA_site1365] | 9.75 ± 0.24
TTTATTCAAATATAATGTACTTTCTACAAATTCAAT [XGTACX_site8119] | 8.28 ± 0.44
ATTTTTTTTGCTAAGTGTACACAAATGTTTATTAAT [XGTACX_site7440] | 8.88 ± 0.51
TTATATAACACGGGGAGGACACAAGAAATAAAGAGC [XGTACX_site2148] | 8.88 ± 0.52
GCTAATAATAAAAGCATAATGAACAAACACCCAGTA [CACACA_negctrl_site806] | 9.24 ± 0.33

Sequence | gcPBM binding intensity (ln)
TTTTTCTGTTTTTATAGCCTTCTCATAATACATAAA [TGCATGCA_negctrl_site355] | 8.46 ± 0.57
ATATTTTCCCTTTATAGGAGCACAAAAATTAAATGT [CACACA_negctrl_site1114] | 8.46 ± 0.35
CAGATAAGATTTTGTGGTACTATTTATTAAATTAGA [XGTACX_site2644] | 8.41 ± 0.38
AACAATTATTGTAATGCATGCACTGAATATAGAAAG [TGCATGCA_site889] | 9.25 ± 0.42
ATTCACAAATATATGGTGCATAATATATATATATAT [GTGCAC_site9674] | 9.07 ± 0.15
AGCGTATAACATATGACACACACACCGACATACACA [CACACA_site8532] | 9.86 ± 0.3
TACGTATCATAATTTTATTTTATATATATTCACAAA [XGTACX_negctrl_site144] | 8.47 ± 0.45
ATATATATATGGAAGTGTACTTATATAGCATACTAG [XGTACX_site5130] | 8.94 ± 0.35
AAATTTTTATAATTATCACACATTGAATTGTGGTCT [CACACA_site4343] | 8.91 ± 0.43
AATATGTAAATATGGGTGCTTTAAAATATATTCATT [GTGCAC_site9583] | 8.65 ± 0.45
TTCCAATGATAAAATTGTACTTGAAGAAAATTTTTT [XGTACX_site4607] | 8.23 ± 0.5
TATATATATATATGTACACACACACCGATAAATAAA [CACACA_site8041] | 9.69 ± 0.15
TTTTTGTCTGCATACGCACACACGTGGACCATCTTA [CACACA_site8303] | 9.48 ± 0.45
AAAGAAAGAAAACACACACACATATATATATATCAA [CACACA_site3743] | 9.71 ± 0.28
ATTTCCCATACACGTTGTACAATGTAGAGAAAGTAT [XGTACX_site4586] | 8.81 ± 0.48
GATATGTGTATAATATGTACATATATATATATATAT [XGTACX_site6531] | 9.58 ± 0.34
CTATTTAAAATATGAACACACATTATTTGTTTTAGA [CACACA_site2713] | 8.56 ± 0.42
ATATCATTATATAGTTGTACATATTTATTTATTTAT [XGTACX_site8995] | 8.97 ± 0.45
AATATAGGAATATGCACACATATATACCTACATACA [CACACA_site4939] | 9.14 ± 0.39

Sequence | gcPBM binding intensity (ln)
AAAAAAAAAAATACTAGTACGTAAAATTATATAAAT [XGTACX_site3019] | 8.9 ± 0.49
TAATACTTATATAAAGGTACACAATTTAACCGAATG [XGTACX_site7173] | 8.76 ± 0.4
GTAAATATTCATATATGTACTTATGATATTTGCTAA [XGTACX_site6828] | 8.68 ± 0.37
AAGAAAGAGTTCTGTTGTACAAAATATTAATATGTA [XGTACX_site7213] | 8.81 ± 0.52
CTTCCTTAGGAATGTACACACATATAAAATATGTTG [CACACA_site6355] | 8.86 ± 0.38
ACATATATATATATATATTGATTTATTTATTTCCCT [CACACA_negctrl_site659] | 8.83 ± 0.42
ATATATATATATAAATGTACAAAAATATATATGTAA [XGTACX_site4531] | 8.99 ± 0.38
TTTCATTTTTTTACATGTACGCAAAAGTGTGTAGTT [XGTACX_site6582] | 9.13 ± 0.28
TTTTGGTTAATTCCCCCCATTACATTATGTCATGTC [CACACA_negctrl_site229] | 9.36 ± 0.17
AACAAAATAAAAAGTAATCTTATTTATTAAAATTTT [CACACA_negctrl_site419] | 8.3 ± 0.62
TATAAACAAAACAAAACATGCATAATACTATAAATT [TGCATGCA_site333] | 9.04 ± 0.36
TAATTAACTTTATATGCATGTTAAAAATGTTATAAG [TGCATGCA_site761] | 8.32 ± 0.31
CTTTATTATAAGATTACACACATGTGTTCTAATTTA [CACACA_site7479] | 9.22 ± 0.38
ATTACCATATAAAACACACAAACATACATACATACA [CACACA_site3729] | 9.38 ± 0.3
TATATATATATATATTGTACATATTAATATTAGAAA [XGTACX_site8923] | 8.765 ± 0.064
TGGAGGTCAGTTCACAGTACCCAGAAACTCTACGAG [XGTACX_site2007] | 8.57 ± 0.45
TATAAATTAAAATCAGTGCATATTTTGAAAAACCTC | 8.62 ± 0.47
TGAAATAACCCATGTGCATGCACTTCAATAACTGAA [TGCATGCA_site1041] | 8.97 ± 0.47
